Laboratory results from the supplement of paper PMC11417369.
This is one part of the list.

test system: PfAP2-HC AP2 domain (GST-tagged); test: gcPBM binding intensity (ln(normalized median fluorescence intensity)); higher = stronger DNA binding
In short: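 DNA-binding domains from P. falciparum, fused to GST and produced in E. coli, were put on an Agilent 4 × 180k double-stranded probe array for 1 h in 1× PBS holding 1% milk, 0.2 mg/ml BSA, 0.5% salmon testes DNA and 0.03% Triton X-100. Probes were primer-extended, 36 bp long and drawn from intergenic genomic regions, with negative controls included. After Alexa488 anti-GST antibody detection and a 488 nm scan, binding intensity was set as the highest Masliner-normalised natural-log median intensity across replicate spots of either probe orientation.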

Compared with “TAATGGAATACATATAGTACATAATATTACATACAT [XGTACX_site5737]”, “TTACACAAACAAATTATGGACACATAAGTAAAAGGA [CACACA_negctrl_site1622]” is higher in “gcPBM binding intensity (ln)” value: 9.76 for the first, 9.89 for the second.

First: GAAAAAAGAAAAAAAAGTACATATATTTAATAAGAC [XGTACX_site6912]
Second: TTATCCATAAAAAAGTGTACGCACTAAAATTGAAAA [XGTACX_site5460]
The “gcPBM binding intensity (ln)” value of the first is higher: 9.78 for the first, 9.64 for the second.

Going from “TATAATTCATATGAAACACACATTTATTTTAATTAC [CACACA_site3686]” to “TAGGCGTTTAATAAAAGTACCCACACATATATTATT [XGTACX_site1932]”, the “gcPBM binding intensity (ln)” value rises from 9.71 to 9.87.

First: TTTATTATCGTTCTCATACACACAAAATATACATAC [CACACA_site2642]
Second: AATTCAAATATAAATACACACACATAGCTACAAAAT [CACACA_site9386]
The “gcPBM binding intensity (ln)” value of the first is lower: 9.99 for the first, 10.3 for the second.

Compared with “ATTTAACAACTTCAAACACACAATATATATATATAT [CACACA_site2093]”, “AAATATATATGTGGGGGTACTAATAAAAAAACCCCT [XGTACX_site2657]” is lower in “gcPBM binding intensity (ln)” value: 9.72 for the first, 9.61 for the second.

First: CATAAATTAATAGTCACACACGTATTTTTTATATAT [CACACA_site2526]
Second: AAAAAAAAAAAAAGGTGTACATGCAAAATAAATTCT [XGTACX_site4592]
The “gcPBM binding intensity (ln)” value of the first is lower: 9.94 for the first, 9.95 for the second.

Compared with “AAATAAATAAGAAACGCATGCATATATAATATATAA [TGCATGCA_site326]”, “GTTATTTATAGACACACACACATGCATGCACATATA [CACACA_site6204]” is higher in “gcPBM binding intensity (ln)” value: 9.98 for the first, 10.4 for the second.

First: CATATGTTCATCATAGCACACATATATAAATTACAA [CACACA_site9177]
Second: ATATATATATATATTTGTACATATATACATAAAATT [XGTACX_site359]
The “gcPBM binding intensity (ln)” value of the first is lower: 9.63 for the first, 9.75 for the second.

First: CACACCCACAGACACACACACACATATATATATATA [CACACA_site363]
Second: TTTAAAATGGGACTTTGAAAAAAAAAAAAAAAAACA [TGCATGCA_negctrl_site111]
The “gcPBM binding intensity (ln)” value of the first is higher: 10.8 for the first, 9.31 for the second.

Compared with “GAAAAAGTTATAAATTGTACTAAATATTAAATATTG [XGTACX_site7890]”, “CATATATATTTGTTCACACACACACCCAAAAAAAAA [CACACA_site2476]” is higher in “gcPBM binding intensity (ln)” value: 9.48 for the first, 10.3 for the second.

First: TATAGGTATGTATGTACACACAAAAAATGGAATATA [CACACA_site7704]
Second: TATATATATATATATTGTACATAATGTATATATGTT [XGTACX_site3448]
The “gcPBM binding intensity (ln)” value of the first is higher: 10.2 for the first, 9.74 for the second.

Going from “TATATATCATTTAAAACACACAAAAAAAAAAGTTAT [CACACA_site6191]” to “GACTTTTCATTTATAGTGCAAGTTTTTTTTTTTTTT [GTGCAC_site9698]”, the “gcPBM binding intensity (ln)” value falls from 9.76 to 9.74.

Compared with “ATAAATATAAAAAAATGTACATATAGTAATACATAC [XGTACX_site508]”, “GAAATAAAAAGAAATGCATGTAATTTTTTTTTTTTT [TGCATGCA_site928]” is lower in “gcPBM binding intensity (ln)” value: 9.79 for the first, 9.6 for the second.

Going from “ATAAGTATAAGAATCAGTACACAGTTTCTACATACT [XGTACX_site5834]” to “TTGTATTTTTAAATGACACACACATATATATATATA [CACACA_site8481]”, the “gcPBM binding intensity (ln)” value rises from 9.64 to 9.94.

Going from “AATAAATAAGCACATACACACATACATACATACATA [CACACA_site6075]” to “AAGTTATAAAAATAAAGTACAAAGTAGCTATTTTTT [XGTACX_site3144]”, the “gcPBM binding intensity (ln)” value falls from 10.1 to 9.74.

Going from “ATTAAAACCAATTAAAAAAAATTTATAATGGAAGCA [TGCATGCA_negctrl_site273]” to “TATTATTGTTGTTCATGTACACACTATAATAAAAGC [XGTACX_site8957]”, the “gcPBM binding intensity (ln)” value rises from 9.43 to 9.64.

First: GAGATAAAATAAAACACACACATATATATATATAAT [CACACA_site5246]
Second: AATGACTAAATTTAAACACACAAGGGGAGTTTACTT [CACACA_site918]
The “gcPBM binding intensity (ln)” value of the first is higher: 10.3 for the first, 9.67 for the second.

First: ATATATATATATATATGTACTTAATATTTCTTATTT [XGTACX_site6206]
Second: TTATTCAGAAAAAAAAAAAAAAAAAAAAAAAAAAAA [CACACA_negctrl_site1662]
The “gcPBM binding intensity (ln)” value of the first is higher: 9.56 for the first, 8.88 for the second.

Compared with “TATATATATGTGCAGTGTACTTTTTTTTTCTGTAAG [XGTACX_site3424]”, “ATATGTAAAGAAAAGTAAACACTAATTTTAAACAAT [CACACA_negctrl_site11]” is higher in “gcPBM binding intensity (ln)” value: 9.57 for the first, 9.79 for the second.

Compared with “TTTTTTTTAATTGTGATACGTATATTATTTTTTGAT [TGCATGCA_negctrl_site318]”, “ATTTTTAATATTATTACACACACTAATAAAAAAAAA [CACACA_site8265]” is higher in “gcPBM binding intensity (ln)” value: 9.58 for the first, 9.77 for the second.

Going from “GAGAAGACATTACACAGTACCCAGGAAATCTACGGA [XGTACX_site1993]” to “TCGACAAATGTATATACACACATTTGTAACATAAAT [CACACA_site560]”, the “gcPBM binding intensity (ln)” value rises from 9.6 to 9.88.

First: TATAAAGGTGAAATTTGTACATAGTCATTTTTTAAT [XGTACX_site4811]
Second: TGATTAAAAGAGGGAAAAAAAAAAAAAAAAAAAAAA [CACACA_negctrl_site896]
The “gcPBM binding intensity (ln)” value of the first is higher: 9.52 for the first, 8.75 for the second.

First: TGACGAAAAAAAAGGGTGCTTAGTATAACTTTAAAG
Second: TTCTTTTTTAAACACACACACACAAGAAAATATATA [CACACA_site5680]
The “gcPBM binding intensity (ln)” value of the first is lower: 9.44 for the first, 10.3 for the second.

Compared with “TTTCTTATATAAGTGTACTAAAATATATATATGCAA [GTGCAC_negctrl_site546]”, “ATTTTTTTTTTAAAATGTACATGAGAAATTGTATAT [XGTACX_site425]” is higher in “gcPBM binding intensity (ln)” value: 9.36 for the first, 9.47 for the second.

Compared with “TAACATAATATAGACACACACATGTACATATGCCAA [CACACA_site1842]”, “TATATTATTAATTAAGCACACATTATTTTTATAATA [CACACA_site3982]” is lower in “gcPBM binding intensity (ln)” value: 10.6 for the first, 9.47 for the second.

First: TAAAAAAATAAATATACACACATATATAAATATGTA [CACACA_site6641]
Second: TATGAATATCTATACACACACATATATATACTCACT [CACACA_site1597]
The “gcPBM binding intensity (ln)” value of the first is lower: 9.74 for the first, 10.2 for the second.

Compared with “CAAAGATATATAAACACACAAATATAACATATATAC [CACACA_site7395]”, TACACTTGTAATTGCGTGCACGAAGGATATATATAT is higher in “gcPBM binding intensity (ln)” value: 9.99 for the first, 10 for the second.

Compared with “TATATTATTATATATTGTACTTTTTATATTTGCATT [XGTACX_site2978]”, TATGTATATTTTTTTGTGCACATATATATATATATA is lower in “gcPBM binding intensity (ln)” value: 9.83 for the first, 9.79 for the second.

For “ATATAATTATATAAATGTACTCATTCGTTATTTTGC [XGTACX_site6132]”, the “gcPBM binding intensity (ln)” value was 9.63.
